Among the data in paper PMC12820563, “FoxP3 forms a head-to-head dimer in vivo and stabilizes its multimerization on adjacent microsatellites” are binding signal values, retold here.

Some of the results follow.

This assay addresses T1, MBP-FoxP1dN (Mus musculus, UniProt P58462 326-579).
T1 sequence: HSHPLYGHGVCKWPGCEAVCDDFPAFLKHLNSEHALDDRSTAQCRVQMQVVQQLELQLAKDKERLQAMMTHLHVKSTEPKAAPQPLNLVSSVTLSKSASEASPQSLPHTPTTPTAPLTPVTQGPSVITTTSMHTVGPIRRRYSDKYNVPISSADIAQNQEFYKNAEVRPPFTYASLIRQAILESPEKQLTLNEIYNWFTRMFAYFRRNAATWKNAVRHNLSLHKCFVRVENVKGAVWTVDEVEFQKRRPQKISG
Nature of the assay: PD-seq (MBP pull-down with sequencing); 20 mM Tris-HCl pH 7.5, 100 mM NaCl, 1.5 mM MgCl2, 0.4 uM protein, 0.1 uM dsDNA library, 30 min, room temperature, amylose pull-down; high values mean tight binding. As to conditions: protein: recombinant; tags: His6-MBP; chain copies: 2; dsDNA, one strand shown. A digest of the protocol:
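A fragment of mouse FoxP3 or FoxP1 without its N-terminus, carrying a His6-MBP tag and produced in E. coli, was combined at 0.4 µM with a 0.1 µM degenerate double-stranded DNA library filled in with Klenow. The mixture sat for 30 min at room temperature in Tris pH 7.5 buffer containing NaCl and MgCl2. Protein–DNA complexes were captured on amylose resin, washed three times, and the DNA was freed with proteinase K, barcoded by PCR and sequenced on Illumina. Binding is expressed as reads-per-million enrichment of pull-down over input, with replicates pooled.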
For “GATGATTGTTCTCCCAGCTGATGAATTTGGGCTCTCGAGTAAACAAATTTTCCTAATCTTTCTGTTCAAGCGCCATCTAC”, the binding signal was 0.821 RPM ratio (pull-down/input).

With “GATGATTGTTCTCCCAGCTGATGAATTTTCAAGGTCGAGTAAACAAATTTTCCTAATCTTTCTGTTCAAGCGCCATCTAC”, the binding signal is 0.787 RPM ratio (pull-down/input). Next, “GATGATTGTTCTCCCAGCTGATGAATTACTTGACTCGAGTAAACAAATTTTCCTAATCTTTCTGTTCAAGCGCCATCTAC”: 0.999 RPM ratio (pull-down/input); “GATGATTGTTCTCCCAGCTGATGAATTGCCAGTCTCGAGTAAACAAATTTTCCTAATCTTTCTGTTCAAGCGCCATCTAC”: 0.829 RPM ratio (pull-down/input); “GATGATTGTTCTCCCAGCTGATGAATTGCTCGAATCGAGTAAACAAATTTTCCTAATCTTTCTGTTCAAGCGCCATCTAC”: 1.02 RPM ratio (pull-down/input). Next, “GATGATTGTTCTCCCAGCTGATGAATTAGCTAATTCGAGTAAACAAATTTTCCTAATCTTTCTGTTCAAGCGCCATCTAC”: 0.933 RPM ratio (pull-down/input); “GATGATTGTTCTCCCAGCTGATGAATTCTCAAAATCGAGTAAACAAATTTTCCTAATCTTTCTGTTCAAGCGCCATCTAC”: 1.05 RPM ratio (pull-down/input); “GATGATTGTTCTCCCAGCTGATGAATTTAAGAACTCGAGTAAACAAATTTTCCTAATCTTTCTGTTCAAGCGCCATCTAC”: 0.845 RPM ratio (pull-down/input). Next, “GATGATTGTTCTCCCAGCTGATGAATTGTGCCATTCGAGTAAACAAATTTTCCTAATCTTTCTGTTCAAGCGCCATCTAC”: 1.11 RPM ratio (pull-down/input); “GATGATTGTTCTCCCAGCTGATGAATTAGCGTTGTCGAGTAAACAAATTTTCCTAATCTTTCTGTTCAAGCGCCATCTAC”: 1.06 RPM ratio (pull-down/input). For the sequence “GATGATTGTTCTCCCAGCTGATGAATTTAGACCTTCGAGTAAACAAATTTTCCTAATCTTTCTGTTCAAGCGCCATCTAC”, the binding signal was 0.997 RPM ratio (pull-down/input). Next, “GATGATTGTTCTCCCAGCTGATGAATTTGATGAATCGAGTAAACAAATTTTCCTAATCTTTCTGTTCAAGCGCCATCTAC”: 0.889 RPM ratio (pull-down/input). Under “GATGATTGTTCTCCCAGCTGATGAATTTACCCCCTCGAGTAAACAAATTTTCCTAATCTTTCTGTTCAAGCGCCATCTAC” stands 1.05 RPM ratio (pull-down/input); under “GATGATTGTTCTCCCAGCTGATGAATTCCAGAAATCGAGTAAACAAATTTTCCTAATCTTTCTGTTCAAGCGCCATCTAC”, 0.987 RPM ratio (pull-down/input); under “GATGATTGTTCTCCCAGCTGATGAATTACCATATTCGAGTAAACAAATTTTCCTAATCTTTCTGTTCAAGCGCCATCTAC”, 1.11 RPM ratio (pull-down/input).

Regarding “GATGATTGTTCTCCCAGCTGATGAATTTCTAACATCGAGTAAACAAATTTTCCTAATCTTTCTGTTCAAGCGCCATCTAC”, the binding signal was 1.18 RPM ratio (pull-down/input).

On to “GATGATTGTTCTCCCAGCTGATGAATTCGGGGTTTCGAGTAAACAAATTTTCCTAATCTTTCTGTTCAAGCGCCATCTAC”, for which the binding signal was 0.846 RPM ratio (pull-down/input). Consider “GATGATTGTTCTCCCAGCTGATGAATTAGCTCCGTCGAGTAAACAAATTTTCCTAATCTTTCTGTTCAAGCGCCATCTAC”, for which the binding signal was 0.786 RPM ratio (pull-down/input).

Turning to “GATGATTGTTCTCCCAGCTGATGAATTGATACGTTCGAGTAAACAAATTTTCCTAATCTTTCTGTTCAAGCGCCATCTAC”, the binding signal is 1.2 RPM ratio (pull-down/input). Under “GATGATTGTTCTCCCAGCTGATGAATTCGGTAGATCGAGTAAACAAATTTTCCTAATCTTTCTGTTCAAGCGCCATCTAC” stands 0.874 RPM ratio (pull-down/input); under “GATGATTGTTCTCCCAGCTGATGAATTGTGTGGCTCGAGTAAACAAATTTTCCTAATCTTTCTGTTCAAGCGCCATCTAC”, 1.11 RPM ratio (pull-down/input); under “GATGATTGTTCTCCCAGCTGATGAATTACGCAGCTCGAGTAAACAAATTTTCCTAATCTTTCTGTTCAAGCGCCATCTAC”, 0.972 RPM ratio (pull-down/input). With “GATGATTGTTCTCCCAGCTGATGAATTGGAGTATTCGAGTAAACAAATTTTCCTAATCTTTCTGTTCAAGCGCCATCTAC”, the binding signal is 1.03 RPM ratio (pull-down/input).

In the case of “GATGATTGTTCTCCCAGCTGATGAATTCTAGAGCTCGAGTAAACAAATTTTCCTAATCTTTCTGTTCAAGCGCCATCTAC”, the binding signal was 0.762 RPM ratio (pull-down/input). Under “GATGATTGTTCTCCCAGCTGATGAATTGCGCTCCTCGAGTAAACAAATTTTCCTAATCTTTCTGTTCAAGCGCCATCTAC” stands 1.03 RPM ratio (pull-down/input); under “GATGATTGTTCTCCCAGCTGATGAATTATAGTTATCGAGTAAACAAATTTTCCTAATCTTTCTGTTCAAGCGCCATCTAC”, 1.19 RPM ratio (pull-down/input); under “GATGATTGTTCTCCCAGCTGATGAATTGTTAAATTCGAGTAAACAAATTTTCCTAATCTTTCTGTTCAAGCGCCATCTAC”, 1.16 RPM ratio (pull-down/input). In the case of “GATGATTGTTCTCCCAGCTGATGAATTGGGGTCGTCGAGTAAACAAATTTTCCTAATCTTTCTGTTCAAGCGCCATCTAC”, the binding signal is 0.814 RPM ratio (pull-down/input). Under “GATGATTGTTCTCCCAGCTGATGAATTGTTGATGTCGAGTAAACAAATTTTCCTAATCTTTCTGTTCAAGCGCCATCTAC” stands 2.27 RPM ratio (pull-down/input); under “GATGATTGTTCTCCCAGCTGATGAATTGTTTTAATCGAGTAAACAAATTTTCCTAATCTTTCTGTTCAAGCGCCATCTAC”, 1.38 RPM ratio (pull-down/input); under “GATGATTGTTCTCCCAGCTGATGAATTGTCGTGGTCGAGTAAACAAATTTTCCTAATCTTTCTGTTCAAGCGCCATCTAC”, 0.937 RPM ratio (pull-down/input).
